First the molecules themselves.
B1: LINE1-full (parent)
chain: UACGUAGGUGGUUUUCCCCUGAUAGUGCUAAGGGGGCCUGGAAGUUUGGACUGGGCAGAGCUCAACACAGCGUGGCAAAGUGGCUGUGGCUAGACUGCCUCUCUGGAUUCCUCGUCACUCAGCAGGGCAUCUCUGAGAGAAAUGCC

The source gives no read counts; variants with many changes may rest on few reads.

The series covers variants of B1. In words: self-cleavage, relative activity (ratio to wild type); higher = more cleavage; in vitro, sequencing; the parent is a self-cleaving ribozyme.
With U1C A24G A138G, the self-cleavage came to 1.13. Then U1C U14C A22G U26A C37A A117G, with 1.53. Consider C56U U85C U100A, for which the self-cleavage is 0.02. Regarding U87A A136G A138G, the self-cleavage came out at 0.06. Then U9C U85A U109C U134C, with 0.05.

Consider U85C G114A C123U U130C, for which the self-cleavage stood at 0.1.

As to G41U A43G U52C A64U G82A C146G, the self-cleavage came to 0.48. Then A24G G54A U96A, with 0. In the case of U9A A57U A67G A121G it was 0.77; in that of U23G U87C U130C, 0.56. In the case of A64G U104A C111A U134A U143C it was 0.33; in that of C19U G49U A59G, 0. With G11A U13C A31G U47C C120U, the self-cleavage was 0.73. Then A43G A59U A77G A141G, with 1.21; and A43U U47C A57U A117G, with 0. In the case of U62C U85A U100C it was 0.04; in that of U5C A67G C131U, 1.13. In the case of A77G A79G A121U A142G it was 0.43; in that of A67U A78U C128A, 0.06; in that of U45C U85C U109A, 0.13. As to G4C U13C C68U U119C, the self-cleavage worked out at 1.6.

As for G32A A57G A140G, the self-cleavage was 0.57. Then U96A U104C C116U, with 0.06; and A64G A69G U100C, with 0. Consider A31G U39C C113U, for which the self-cleavage stood at 0.67.

A24G A31G A77C G106A: the self-cleavage was determined as 0.55. In the case of U47C U100A A138G it was 1.33; in that of U45C A78G U102A U108C, 0. In the case of A59G U91A U132C it was 0.08; in that of A31G A129G U134C, 0.9; in that of A117G A138G G144A, 1.68. Then U45C U132C A140C, with 1.67; and U12A A78G G126U A142G, with 0.84. Regarding U15C U46A U85C U119A A121U A138G, the self-cleavage was 0.1. Then U9C U39C A78U U87A A107G, with 0.18; and U5C A42U C90A A136G, with 0.09; and A2G U73A U109A, with 0.8. In the case of U14A U73G A117C it was 0.57. In the case of A67G C113U A142G it was 0.32; in that of U81C U85A U115C U132C, 0.13. Regarding U13A U39A A65U A129G U130C, the self-cleavage was 0.48. In the case of U104A U134C A138G it was 1.99. In the case of A30G U39C U119A A140G it was 0.92; in that of U85C C95U G122U, 0.02; in that of U12C U96C A140G, 0.

As to U9C U12C U104C, the self-cleavage was 1.15.

As for U14C C18A U85C, the self-cleavage was 0.17. In the case of G41A C63A A65C it was 0.01; in that of U13G A78G A136G, 1.68. U15C A31U U62A: the self-cleavage is 0.08. For the variant U52A G80C U100A A107G, the self-cleavage amounted to 0. In the case of U14C A43G C76U it was 2.12; in that of U14C U52C A124G, 0.64; in that of U14A U62C U132C, 0.08. For U12A U46A G114C G137C A142G, the self-cleavage was found to be 1.05.

U62C G83A U104C: the self-cleavage was determined as 0.03. Then U45C C103A A107G, with 1.21; and U5A U15C U112C, with 1.28; and U14C A64G U73C A124G A136U, with 0. In the case of A22G A79G U102C A140G it was 0.61; in that of U15C U130A C145G, 2.17; in that of U20A U26C A50G A77U, 0.89.

Regarding A42G U47A C56U G58U U81C U96A, the self-cleavage was 0.03. Then A50U C56U U130A, with 0.09.

As to A22G G33A U39A A59G U143A, the self-cleavage was determined as 0.1. In the case of U29A A64G G126C A138G it was 0.46; in that of U29C G34A U108C A117U, 1.67. In the case of C38A A59C U85C A141G it was 0.31.

Consider A6G U87A G114A, for which the self-cleavage is 0.07. In the case of C28G A78G A79U A136U U143C it was 0.86; in that of U26A A59U A67U A124G, 0.02. Then U47C A64G G127C, with 0.4; and U85A A124G U132A, with 0.05. On to U12A A43G U45G A121G, for which the self-cleavage was 1.02. As to U5C U9C U26A U91C, the self-cleavage was determined as 1.02. In the case of A59G A140G A141G it was 0.03; in that of U5A A6G U15C, 0.43. Consider G4U U102C U119C A138G A140G, for which the self-cleavage was 1.97. In the case of U52A G54A A64U A117G it was 0.23; in that of U26A A30U U96A, 0.09; in that of U12C U29A A65U A129U, 0.37.

As to U13C A22U U108C C133A, the self-cleavage stood at 1.16. In the case of A42U G54A G72A A94G it was 0.07; in that of U20C C113A A124G, 1.46. Then U12C U47G A69G U104A, with 0; and U14C A94G A107G U108A, with 0.

Take U109G U112C A140U: the self-cleavage stood at 1.71. Take U12C U47A A50G U115C A138G: the self-cleavage stood at 2.3. Turning to G48A U87G C101U A140G, the self-cleavage was 0.15. In the case of A59U A65U U85A U115C it was 0.03. As for G11A U108A U112A, the self-cleavage came out at 1.95. Turning to U29C G34U C98U A142U, the self-cleavage came out at 0.89. Then U5C U47A U115C, with 0.5; and U26A A67U U91C U102A A142G, with 0.05. In the case of G11A U13G U62C C113A C128G it was 0; in that of G35A U45A G70U U87A, 0.01; in that of U52C C63A G72A, 0.01. Consider U39C A124G A141G C145G, for which the self-cleavage turned out to be 0.87. Then U112C U132G A136U, with 2.91. In the case of U9C U12A A78G U85C U134A it was 0.1. Regarding U52C U102C A107U, the self-cleavage turned out to be 0.77. Take G10A U20C A77U U87G: the self-cleavage came to 0.16. Consider G58A A59C A69G A121U, for which the self-cleavage was found to be 0.09. For the variant A22U A78G U102C U104A A140G, the self-cleavage is 1.13. Then U13C A59G U62C C120U, with 0. Regarding U12C U134C U143C, the self-cleavage was determined as 2.13.

For the variant U12C U26A A59U, the self-cleavage was determined as 0.71. As for A59G A78U U119C, the self-cleavage amounted to 0.18. Then G125U U130C U143C, with 1.27; and U46C U47C U104A, with 1.5; and U1A G33U U73G A124G, with 1.04. Then U108C A117G U130C, with 1.84; and U15C U46A A59C, with 1.31. With G34A U119C A129U U143C, the self-cleavage amounted to 1.33. In the case of U46C U87A U115C, the self-cleavage is 0.24. Regarding U1C U26A A59U A77G, the self-cleavage was found to be 0.95. In the case of A22G A64C A77G C145U it was 0.73; in that of U20C U23C U96G C120A A129G, 0; in that of G7A U119C A140C, 0.97. Then A67G U85C U134C, with 0.11. A43G U46A A69G U96C: the self-cleavage is 1.31. Take U5C A42G C56U A117U: the self-cleavage turned out to be 0.87. Then A24G U29C A67U U100C C118U, with 0; and U14C U20C U39A, with 1.15. Then A67U U112C U132A, with 0.15; and C17U U47A A129G U132C, with 1.51. In the case of U62C A64U U109C it was 0.08; in that of U12C U26C U39A U87G, 0.47. For U102C G125U U143C, the self-cleavage turned out to be 1.58. Take U39C U52C U81A C103U: the self-cleavage came out at 0.04.

In the case of A65G U132C A140G, the self-cleavage was determined as 0.07.

With A57G G58A A69G A77U U87A U119A A121G G125U, the self-cleavage is 0.03.

For U46C U62C U85C, the self-cleavage came out at 0. Then A2C A22G U39C A107G, with 0; and U14C U62C U96A U115A, with 0.28; and G54A G72A U115C, with 0.56. In the case of G35U G44A U47C A94U A136U, the self-cleavage came out at 0.23. Then U73A U81A U143C, with 1.68; and C17U U87C A124G, with 0. In the case of U45A A69U U108C U119A it was 0.05; in that of A6G A22U U104C, 0.24; in that of U29C G93A U100C U104A, 0.11. Take U102C U109C C123U: the self-cleavage turned out to be 0.92. For the variant U1A C16U A77U, the self-cleavage amounted to 0.42. In the case of U20A A50G U62C U87A U96C it was 0. In the case of A42U A57U A77U it was 0.13; in that of U20A U81A U104C, 2.46. Then U12A G35A A138G, with 1.22; and C66G U96C U102A C103U U115C, with 0.08; and C3U U46A G125A A141G, with 1.33. As for A79U A107G G125U, the self-cleavage turned out to be 2.46. A64G U85A G97A: the self-cleavage amounted to 0.05.

Take U20A U91C A140G: the self-cleavage was 0.56. In the case of U47A U52A U87A it was 0.09. In the case of C3U U14C U45A A57G A129G it was 0.26; in that of G54A A57U A65C U102A U130A, 0.03; in that of U9C G32A U109C A121U C131A A136G, 1.84.

As to U62C C84U U85C, the self-cleavage worked out at 0. Then U14C U85C U104C, with 0.21; and U13C A43G A129G, with 2.7; and U13C G55A A57G A67G A77U, with 0. Then U20A G58A A64G U87C A136U, with 0.05. Then U52A A67G C84A U100C U143A, with 0. On to A24G C63U U134A U143C, for which the self-cleavage came to 0.25. Then U9G U87A U119C A141G, with 0.47; and U23A A43G A107G, with 2.45.

On to A22G A31G A57G U102C A117U, for which the self-cleavage stood at 1.31.

Values taken from the RNAGym collection of RNA variant scans (doi:10.7554/elife.90254).
